# Assay results reported in PubChem BioAssay AID686978 (National Center for Advancing Translational Sciences (NCATS), 2013).
# Among all 420,000 compounds or so, about 64,000 (15%) were called active. Inconclusive means that the source gave no clear call. Such entries were picked first, then a sample of the others. Calls come from the whole dose curve; as a rule, active = well fitted inhibition curve with a large enough effect; inconclusive = small, poorly fitted or top-dose-only effect; inactive = flat fitted curve, though single readings scatter. Potencies of inconclusive entries are left out as doubtful fits.
# Assay: qHTS for Inhibitors of human tyrosyl-DNA phosphodiesterase 1 (TDP1): qHTS in cells in absence of CPT; note: nearly all actives have a fitted effect of over 55% in size
# Conditions: DT40 Tdp1-/- hTDP1 cells, no CPT, ATP luminescence, 48 h; series mostly up to 46.2 µM
# In short: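 Camptothecin absent (DMSO only). Human TDP1-complemented DT40 knockout cells, 400 cells/well, 37 °C for minimum 48 hr; ATP measured via CellTiter-Glo, 30 min dark incubation, luminescence.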
# Potency is the fitted concentration of half-maximal effect; tags give direction and shape of the fitted curve.
row,Structure (SMILES),Potency
1,CN(C)c1ccc(Nc2ccc([N+](=O)[O-])cn2)cc1,"inconclusive [inhibitor, full curve, poor fit]"
2,O=C(Nc1ccc(S(=O)(=O)N2CCCCC2)cc1)C1CC(=O)N(c2ccc(Cl)cc2)C1 (stereo unspecified),"inconclusive [inhibitor, single point]"
3,CC(C)Oc1ccc(C(=O)Nc2nnc3n2CCS3)cc1,inactive
4,COC(=O)CSc1nc2sc3c(c2c(=O)n1-c1ccccc1)C(C)CCC3 (stereo unspecified),inactive
5,S=C(Nc1ccc(Oc2ccccc2)cc1)NC1CCCCCC1,active: 23.1 µM
6,COc1cc(C2c3c(-c4cc(C)ccc4O)n[nH]c3C(=O)N2Cc2ccco2)cc(OC)c1OC (stereo unspecified),"inconclusive [inhibitor, single point]"
7,CCOc1ccc(N2C(=O)CC(N(Cc3ccco3)C(=O)CCC(=O)O)C2=O)cc1 (stereo unspecified),inactive
8,Cc1ccccc1CNS(=O)(=O)c1c(C(=O)N2CCCCC2)c(C)n(C)c1C,inactive
9,O=C(Cc1cccc(F)c1F)NC1CCCN(Cc2ccc(Cl)cc2)C1 (stereo unspecified),"inconclusive [inhibitor, single point]"
10,COCCN(CCOC)S(=O)(=O)c1ccc(C(=O)NC2CCN(Cc3ccccc3)CC2)cc1,"inconclusive [inhibitor, single point]"
11,COc1ccccc1OCCSc1nc2ccccc2c(=O)[nH]1,"inconclusive [inhibitor, partial curve]"
12,COc1ccc(NC(=O)c2ccc(S(=O)(=O)N(C)c3ccccc3)cc2)cc1S(=O)(=O)N1CCOCC1,active: 14.6 µM
13,O=C(C[n+]1ccc(/C=N/O)cc1)NC1CCCCC1,inactive
14,Cc1ccc(OCC(=O)N2CC(C)OC(C)C2)c([N+](=O)[O-])n1 (stereo unspecified),inactive
15,CCCc1nn2c(=O)cc(COC(=O)c3cccc(NC(=O)c4ccc(OCC)cc4)c3)nc2s1,inactive
16,COc1ccc(NC(=O)C2CCCN2C(=O)Nc2ccc(OC)cc2)cc1 (stereo unspecified),inactive
17,COc1ccccc1OCC(=O)Nc1cc(S(=O)(=O)N2CCCCC2)ccc1N1CCCCC1,active: 23.1 µM
18,CCc1c(-c2ccc(OC)cc2)ncn1Cc1cccc(-c2ccccc2)c1,active: 4.61 µM
19,CCCCN(CC)C(=O)CN(C)S(=O)(=O)c1cccc2nsnc12,"inconclusive [inhibitor, single point]"
20,Cc1nn(Cc2cccc(C(=O)Nn3cc([N+](=O)[O-])cn3)c2)c(C)c1[N+](=O)[O-],"inconclusive [inhibitor, partial curve]"
21,Cc1nn(Cc2ccccc2Cl)c(C)c1NC(=O)c1ccn(C)n1,active: 11.6 µM
22,CCc1ccc(NC(=O)Cn2cnc([N+](=O)[O-])c2)cc1,"inconclusive [inhibitor, single point]"
23,CC(C)c1ccccc1NC(=O)CCc1nc2ccccc2s1,"inconclusive [inhibitor, partial curve, poor fit]"

row,Structure (SMILES),Potency
1,CCN(CC(=O)Nc1ccc(NC(C)=O)cc1)C(=O)c1ccc(=O)n(C)n1,inactive
2,CCC(C)(C)NC(=O)C(c1ccc(OC)cc1)N(C(=O)CCC(=O)Nc1cc(C)on1)C(C)(C)C (stereo unspecified),inactive
3,COc1ccccc1-c1cc(C(F)(F)F)nc(S(=O)(=O)CCCC(=O)NCc2ccc(F)cc2)n1,active: 4.11 µM
4,O=C(NCc1cn(-c2ccccc2)nc1-c1ccc(F)cc1)c1cccc([N+](=O)[O-])c1,"inconclusive [inhibitor, single point]"
5,CC1CCCCC1NC(=O)CCNC(=O)N1CC(=O)Nc2ccccc21 (stereo unspecified),inactive
6,Cc1ccccc1OCC(=O)NC(=S)Nc1ccc(N2CCCC2)cc1,"inconclusive [inhibitor, partial curve]"
7,Oc1[nH]c2ccccc2c1N=Nc1ccccc1F,"inconclusive [inhibitor, single point]"
8,CCOC(=O)c1ccc(N2CCN(c3ccccc3F)CC2)c(NC(=O)Nc2cccc(OC)c2)c1,active: 5.8 µM
9,COc1ccc(NC(=O)c2cc(S(=O)(=O)N3CCCC(C)C3)cn2C)c(OC)c1 (stereo unspecified),inactive
10,Cc1cc(C)n2nc(SCc3cccc(S(=O)(=O)N(C)C)c3)nc2n1,active: 14.6 µM
11,COc1ccc(Cn2nnc3c(=O)[nH]c(C4CCN(S(=O)(=O)c5ccc(C)cc5)CC4)nc32)cc1,"inconclusive [inhibitor, partial curve, poor fit]"
12,CC(=O)NC1C(=O)N=C(SCC(=O)Nc2cccc(Cl)c2)NC1=O (stereo unspecified),inactive
13,COc1ccc(NC(=O)CSc2nc3ccccc3n2CC(=O)N(C)C2CCCCC2)cc1,"inconclusive [inhibitor, single point]"
14,COc1cccc(-n2c(SC)nnc2C2CCN(CCC(C)c3ccc(C)o3)CC2)c1 (stereo unspecified),"inconclusive [inhibitor, single point]"
15,O=S(=O)(c1cccc(Cl)c1)n1c(/C=C/c2ccccc2Cl)nc2ccccc21,active: 13 µM
16,CN(C)c1cccc(C(=O)N/N=C/c2ccsc2)c1,"inconclusive [inhibitor, partial curve]"
17,Fc1cccc(Cc2c(-c3ccccc3)nc3ccc(Cl)cn23)c1,"inconclusive [inhibitor, single point]"
18,COc1ccc(CCNC(=O)CCCCn2c(=O)[nH]c3ccccc3c2=O)cc1OC,inactive
19,CCOc1ccc(CN2CCN(Cc3ccc(C)o3)CC2CCO)cc1 (stereo unspecified),"inconclusive [inhibitor, single point]"
20,CN(C)Cc1cc(C(F)(F)F)ccc1C(O)(c1ccccc1)c1ccccc1,"inconclusive [inhibitor, single point]"
21,CC(=O)NC(c1ccc(Cl)cc1)c1c(O)ccc2ccc(O)cc12 (stereo unspecified),"inconclusive [inhibitor, single point]"
22,N#Cc1ccccc1OC[C@H](O)CNCCNC(=O)Nc1ccccc1,"inconclusive [inhibitor, full curve, poor fit]"
23,Cc1cc(C)c(S(=O)(=O)NCC2CCC(C(=O)NCCc3ccccc3)CC2)c(C)c1 (stereo unspecified),active: 14.6 µM
